Test results reported in PubChem BioAssay AID588855 (National Center for Advancing Translational Sciences (NCATS), 2011).
Screen size: about 410,000 compounds; about 5,000 (1.2%) were called active. Inconclusive results, whose numbers are uncertain, are shown with a selection of clear calls. Calls follow the shape of the dose curve; as a rule, active = well fitted inhibition curve with a large enough effect; inconclusive = small, poorly fitted or top-dose-only effect; inactive = no such curve, though single readings can be large or run the other way. A potency beside an inconclusive call is a rough fit, not a confirmed value.

experiment: qHTS for Inhibitors of TGF-b; details: HepG2 CAGA-GFP TGF-b/SMAD3 reporter, GFP fluorescence, 18 h, TGF-beta stimulated, 500 pg/mL final; series mostly up to 46.1 µM; activity, negative = inhibition: at the top concentration; also: nearly all actives have a fitted effect of over 65% in size
In short: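 TGF-beta reporter screen: HEPG2 CAGA-GFP, 1% FBS, 500 pg/mL TGF-beta final, 18 h; per-cell GFP summed per well; curves fitted and categorized by class.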
% is scaled to controls: 0 for no effect and ±100 for the full control effect; potency is read from the fitted curve at half-maximal effect; tags tell the direction and shape of the fitted curve.

Compound	Potency	activity, negative = inhibition
CCOCCCn1c(=S)[nH]c2cc(C(=O)NCCN(CC)CC)ccc2c1=O	inconclusive: 22.4 µM [inhibitor, single point]	
O=c1cc(C(F)(F)F)[nH]c2ccc(OC(F)(F)F)cc12	inconclusive: 10 µM [inhibitor, partial curve, poor fit]	
COc1ccc(C2C(C#N)=C(N)N(c3sc4c(c3C#N)CCCC4)C3=C2C(=O)CC(C)(C)C3)cc1 (stereo not drawn)		inactive: -1.65%
N#C/C=C/N1CCN(Cc2ccc3c(c2)OCO3)CC1		inactive: 1.39%
O=C(NCc1cccc(Cl)c1)C1Cc2c(-c3ccccc3Oc3ccccc3)ccnc2O1 (stereo not drawn)	inconclusive: 35.5 µM [inhibitor, single point]	
COc1ccc(C2c3c(n(C)c4ccccc34)C(=O)N2CC(=O)Nc2ccccc2Cl)cc1 (stereo not drawn)		inactive: 0%
Cc1nnc(Sc2cc(NCCO)c([N+](=O)[O-])c3nonc23)s1	inconclusive: 35.5 µM [inhibitor, single point]	
Cc1nn(Cc2ccc(C(=O)N3N=C(C(F)F)CC3(O)C(F)F)o2)c(C)c1[N+](=O)[O-] (stereo not drawn)	inconclusive: 0.631 µM [inhibitor, full curve, poor fit]	
CC(=O)N1CCN(c2cc(N3CCc4ccccc4C3)c(F)cc2[N+](=O)[O-])CC1	inconclusive: 17.8 µM [inhibitor, single point]	
CN1CCN(S(=O)(=O)c2ccc(NC(=O)Nc3cccc(Cl)c3)cc2)CC1	inconclusive: 5.62 µM [inhibitor, single point]	
Cn1c2ccccc2c2cc([N+](=O)[O-])ccc21		inactive: -11.1%
COc1ccc(CN2C(=O)C(CC(=O)NCCCCc3ccccc3)CC(C(=O)N(C(C)C)C(C)C)=C2C)cc1 (stereo not drawn)	inconclusive: 22.4 µM [inhibitor, single point]	
COc1cc(/C(=C/c2ccccc2)c2ccccc2)c2c(c1)oc1ccccc12	inconclusive: 3.55 µM [inhibitor, partial curve, poor fit]	
C=CCn1c(COc2ccc(Cl)cc2)nnc1SCC(=O)c1c(N)n(C)c(=O)n(C)c1=O		inactive: -18.6%
CCOC(=O)C1CCN(C(=O)CCCn2nc(CC)n3c(cc4occc43)c2=O)CC1	inconclusive: 6.31 µM [inhibitor, single point]	
Cc1ccc(/C=N/NC(=O)CSc2nnc(-c3ccccc3)n2-c2ccc(Cl)cc2)o1	inconclusive: 17.8 µM [inhibitor, single point]	
Cc1nc([N+](=O)[O-])c(Sc2nc3ccccc3n2C)n1Cc1ccccc1	inconclusive: 35.5 µM [inhibitor, single point]	
CC(C)Nc1ccc(C(CC(N)=O)NC(=O)Cc2cccc3ccccc23)cc1[N+](=O)[O-] (stereo not drawn)	inconclusive: 0.631 µM [inhibitor, full curve, poor fit]	
CCSC(=O)NC12CC3CC(CC(C3)C1)C2		inactive: 1.14%
FCCCOc1ccc(CN2CCN(c3ccccc3F)CC2)cc1		inactive: 0.941%
O=C(Nc1ccccc1)c1cccc(S(=O)(=O)N2CCCCC2)c1		inactive: -13.3%

Compound	Potency	activity, negative = inhibition
C(=C\c1cccc2ccccc12)/c1nnc(-c2cccs2)o1	inconclusive: 35.5 µM [inhibitor, single point]	
CC(C)(C)c1ccc(NC(=O)COC(=O)c2ccc(NS(=O)(=O)c3ccc(F)c(F)c3)cc2)cc1	active: 14.1 µM	
O=S(=O)(Nc1cccc(-c2ccc(N3CCOCC3)nn2)c1)c1cc(Cl)ccc1Cl		inactive: -1.46%
COc1ccc(C)cc1NS(=O)(=O)c1ccc(-c2cnc(C3CC3)o2)cc1	active: 3.55 µM	
CCOc1ccc(/C=C/C(=O)c2cc(Br)ccc(=O)c2O)cc1	active: 7.94 µM	
OC(CNc1ccnc2cc(Cl)ccc12)CNC1CCCCC1 (stereo not drawn)	inconclusive: 35.5 µM [inhibitor, single point]	
O=C(Cn1cc(S(=O)(=O)c2ccc(Cl)cc2)c(=O)c2ccccc21)Nc1ccc2c(c1)OCO2	inconclusive: 35.5 µM [inhibitor, single point]	
CCN(CC)CCNC(=O)c1ccc(NC(=O)c2ccc(S(=O)(=O)N3CCCCCC3)cc2)cc1	inconclusive: 35.5 µM [inhibitor, single point]	
CCCOc1ccc(F)cc1-c1cc(C(=O)NCc2cc(OC)cc(OC)c2)[nH]n1	inconclusive: 35.5 µM [inhibitor, single point]	
CCCN1CCN(CCNC(=O)Nc2cc(Cl)c(OC)cc2OC)CC1	inconclusive: 0.794 µM [inhibitor, partial curve, poor fit]	
CSc1nc(C)cc(OCC(=O)N/N=C/c2ccccc2O)n1	inconclusive: 0.0891 µM [inhibitor, full curve]	
O=C(CSc1nnc(CNC(=O)c2c(F)cccc2F)o1)c1ccccc1	inconclusive: 0.224 µM [inhibitor, full curve, poor fit]	
Cc1cc(C(=O)Nc2cccc(C(F)(F)F)c2)c2c(C)nn(-c3cccc(F)c3)c2n1	active: 7.08 µM	
Oc1ccc(Cc2ccc(Cl)cc2)c(O)c1	inconclusive: 12.6 µM [inhibitor, partial curve]	
Cc1cc(NC(=O)C(C)SCC(=O)Nc2ccc(Br)cc2Br)no1 (stereo not drawn)		inactive: 12.8%
Cn1nc(C(=O)OCC(=O)Nc2ccc3ccccc3c2)c2ccccc2c1=O	inconclusive: 2.24 µM [inhibitor, partial curve]	
O=C(Nc1nnc(CCN2CCCCC2)s1)c1cccc(Cl)c1	inconclusive: 2.24 µM [inhibitor, partial curve, poor fit]	
Cc1ccc(CCNC(=O)C(C)n2nc(C)c3c(C)n(-c4ccccc4)nc3c2=O)cc1 (stereo not drawn)		inactive: -9.5%
COc1ccc(-c2cc(C(F)(F)F)nc(SCC(=O)N3CCCCC3)n2)cc1	inconclusive: 17.8 µM [inhibitor, partial curve, poor fit]	
O=C(c1cccc([N+](=O)[O-])c1)N1c2nc(-c3ccco3)nn2C2(CCCCC2)[C@@H]2CCCC[C@@H]21	inconclusive: 0.112 µM [inhibitor, full curve, poor fit]	
CS(=O)(=O)c1cccc(C(=O)Nc2ccc(-c3nc4ccccc4[nH]3)cc2)c1	inconclusive: 25.1 µM [inhibitor, single point]	

Compound	Potency	activity, negative = inhibition
CC(C)=CCc1c(O)cc2c(=O)c3ccc(O)cc3oc2c1O	inconclusive: 14.1 µM [inhibitor, single point]	
COc1ccc(-n2ncc(Cl)c(Cl)c2=O)cc1	inconclusive: 35.5 µM [inhibitor, single point]	
CCN1C(=O)[C@H]2[C@H]3CN=C(SCc4ccccc4)N3[C@@](Cc3ccccc3)(C(=O)OC)[C@H]2C1=O	inconclusive: 35.5 µM [inhibitor, single point]	
Cc1ccc(C)c(NC2CCCCC2NS(=O)(=O)c2ccccc2)c1 (stereo not drawn)	inconclusive: 17.8 µM [inhibitor, single point]	
CC(C)Cn1nc(NC(=O)c2cccs2)c2cc3ccccc3nc21	inconclusive: 15.8 µM [inhibitor, single point]	
Cc1cccc(NC(=O)CSc2ccc(-c3ccccn3)nn2)c1C	inconclusive: 35.5 µM [inhibitor, single point]	
O=c1c2ccccc2oc2ccc(C#CC3(O)CCCCC3)cc12	inconclusive: 35.5 µM [inhibitor, single point]	
Cc1cccc2c1-c1sc(C(=O)Nc3ccccc3N3CCN(C)CC3)cc1CO2	inconclusive: 35.5 µM [inhibitor, single point]	
N#CC1=C(N)n2c(s/c(=C\c3ccco3)c2=O)=C(C#N)C1c1ccco1 (stereo not drawn)		inactive: -18.2%
COc1ccc(C(C(=O)Nc2ccc3c(c2)OCO3)N(C)C(=O)Cc2c[nH]c3ccccc23)cc1 (stereo not drawn)	inconclusive: 35.5 µM [inhibitor, single point]	
CCOc1ccc(S(=O)(=O)N/N=C(\C)c2ccc(Cl)c(Cl)c2Cl)cc1	inconclusive: 25.1 µM [inhibitor, single point]	
COc1ccc(NC(=O)CN(C)CC(=O)Nc2ccccc2SC)cc1		inactive: -5.27%
O=[N+]([O-])c1ccc2c(c1)C(N1CCN(CCO)CC1)Cc1ccc(F)cc1S2 (stereo not drawn)	inconclusive: 35.5 µM [inhibitor, single point]	
C[C@H](CO)N1C[C@H](C)[C@H](CN(C)C(=O)Nc2ccc(-c3cccs3)cc2)OCc2cnnn2CCCC1=O	inconclusive: 22.4 µM [inhibitor, partial curve, poor fit]	
CC(C)(C)c1cc(CN(CCO)CCO)c(O)c(C(C)(C)C)c1	inconclusive: 25.1 µM [inhibitor, single point]	
COc1ccccc1C(=O)O/N=C(\N)c1ccccn1	inconclusive: 2.82 µM [inhibitor, single point]	
CNC(=O)Nc1cc(NC(=O)NC)cc(C(F)(F)F)c1	inconclusive: 3.16 µM [inhibitor, partial curve]	
CSCCC(N=C1NS(=O)(=O)c2ccccc21)C(=O)N1CCCC(C(N)=O)C1 (stereo not drawn)	inconclusive: 0.316 µM [inhibitor, full curve, poor fit]	
CCOC(=O)c1c(C)[nH]c(C)c1S(=O)(=O)N(C)CC(=O)N1CCN(c2cccc(C)c2C)CC1	inconclusive: 3.55 µM [inhibitor, partial curve, poor fit]	
CCc1nc2ccc(Cc3ccc4nc(CC)[nH]c4c3)cc2[nH]1	inconclusive: 17.8 µM [inhibitor, single point]	
COc1cc2c(NC3CCN(C)CC3)nc(N3CCCN(C)CC3)nc2cc1OCCCN1CCCCC1	inconclusive: 35.5 µM [inhibitor, single point]	
